Laboratory results reported in publication PMC4336329 (PLoS ONE, 2015).
Out of some 310,000 compounds screened, about 2,200 (0.71%) showed an effect of 50% or more. The effect is printed as a negative number. Some of the results follow.

Biological target: human ether-à-go-go-related gene (hERG) potassium channel (human, UniProt Q12809)
Test: primary screen, population patch clamp on CHO cells stably expressing hERG

Chain of human ether-à-go-go-related gene (hERG) potassium channel (Q12809 whole entry, looked up): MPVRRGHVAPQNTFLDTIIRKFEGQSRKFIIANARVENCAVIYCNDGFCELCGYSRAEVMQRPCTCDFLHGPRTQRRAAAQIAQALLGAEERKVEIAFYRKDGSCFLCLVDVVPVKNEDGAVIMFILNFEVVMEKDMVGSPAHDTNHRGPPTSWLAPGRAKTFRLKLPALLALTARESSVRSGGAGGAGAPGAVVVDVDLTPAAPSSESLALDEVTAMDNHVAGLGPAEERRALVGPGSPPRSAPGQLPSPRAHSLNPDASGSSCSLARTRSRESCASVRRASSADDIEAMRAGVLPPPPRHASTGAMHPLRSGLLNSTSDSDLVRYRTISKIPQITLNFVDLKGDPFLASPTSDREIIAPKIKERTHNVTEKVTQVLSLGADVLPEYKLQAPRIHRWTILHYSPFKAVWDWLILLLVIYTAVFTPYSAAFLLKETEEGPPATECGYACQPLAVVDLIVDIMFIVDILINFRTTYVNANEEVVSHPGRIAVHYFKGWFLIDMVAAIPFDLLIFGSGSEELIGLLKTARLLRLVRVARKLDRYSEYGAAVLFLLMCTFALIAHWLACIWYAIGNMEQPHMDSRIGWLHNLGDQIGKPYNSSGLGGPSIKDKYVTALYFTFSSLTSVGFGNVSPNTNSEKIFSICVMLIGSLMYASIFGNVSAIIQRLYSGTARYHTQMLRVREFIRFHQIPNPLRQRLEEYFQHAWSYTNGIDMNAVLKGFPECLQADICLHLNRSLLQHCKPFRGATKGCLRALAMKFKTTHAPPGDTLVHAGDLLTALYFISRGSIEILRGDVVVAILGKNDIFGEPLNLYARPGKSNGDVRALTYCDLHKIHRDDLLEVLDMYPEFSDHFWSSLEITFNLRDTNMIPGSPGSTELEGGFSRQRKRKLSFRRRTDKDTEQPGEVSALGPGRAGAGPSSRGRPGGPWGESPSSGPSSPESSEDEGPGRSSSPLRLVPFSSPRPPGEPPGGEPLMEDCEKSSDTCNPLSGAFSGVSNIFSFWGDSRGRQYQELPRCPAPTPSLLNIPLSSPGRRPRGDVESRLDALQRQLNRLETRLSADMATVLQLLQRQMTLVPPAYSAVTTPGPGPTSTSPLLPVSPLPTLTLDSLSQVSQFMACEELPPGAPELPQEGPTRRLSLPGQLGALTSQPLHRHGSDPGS

Compound	hERG current change (%, negative = inhibition) at 1uM
CC1CCc2nn(CC(=O)NCc3ccco3)cc2C1 (stereo not shown)	5.91%
CCn1c(=O)cc(OCC(=O)NCCCN2CC(C)CC(C)C2)c2ccccc21 (stereo not shown)	12%
COCc1c(C(=O)N2CCN(Cc3c(F)cccc3Cl)CC2)oc2ccccc12	11.6%
CSc1ccccc1NC(=O)CN(C)Cc1cc(=O)n2ccsc2n1	-4.27%
CS(=O)(=O)c1sc2nc(-c3cccs3)cc(-c3ccccc3)c2c1N	16.5%
COc1ccc(CN2CSC(=S)N(Cc3ccc(OC)cc3)C2)cc1	13.8%
COc1cc(C(=O)N2CCN(c3ccccc3OC)CC2)c([N+](=O)[O-])cc1OC	12.5%
O=C(O)C1=C[C@@H](C2CC2)C[C@@H](OCc2ccc(CO)cc2)O1	9.44%
COc1ccc(Cc2nnc(SCC(=O)N(c3ccccc3)C(C)C)n(N)c2=O)cc1	6.82%
CCOC(=O)Nc1ccc(C)cc1NC(=O)OCC	13%
Oc1cc(NCc2cccnc2)ccc1-c1nc2ccccc2o1	13.2%
O=C(CSc1nnc(Cc2cccs2)n1CCc1ccccc1)N1CCCc2ccccc21	6.03%
COc1ccc(C(C)=O)cc1COC(=O)CCNS(=O)(=O)c1ccc(C)cc1	8.45%
CCN(CC(=O)Nc1ccccc1C(F)(F)F)C(=O)CSCC(=O)Nc1cc(C)on1	15.5%
COc1ccc2cnn(-c3ccccc3C)c(=O)c2c1OC	17%
Cc1ccc(C)c(NC(=O)NCc2ccccn2)c1	3.31%
CCC(C)NC(=O)C1c2ccccc2C(=O)N1Cc1ccc(F)cc1 (stereo not shown)	4.36%
O=C(NCc1ccncc1)C1CCN(S(=O)(=O)c2ccccc2)CC1	-3.63%
Cc1ccc(C(=O)NNC(=S)NC(=O)c2ccc(Cl)cc2)cc1	10.5%
CC(=O)NC(NC(=S)Nc1ccccc1Br)C(Cl)(Cl)Cl (stereo not shown)	13.4%
CC(C)CN1C(=O)C(=Nc2cccnc2)c2ccccc21	5.77%
O=C(Nc1ccccc1Cl)c1ccc(COc2ccc3c(c2)CCC3)cc1	15.4%
CCOC(=O)c1[nH]ncc1CN1CCCC(C(=O)c2cccc(Cl)c2)C1 (stereo not shown)	6.01%
CN1C(=O)/C(=C/c2ccccc2OCc2cccc(F)c2)N(C)C1=S	13.9%
COc1ccc2oc(=O)cc(C)c2c1	2.96%
